Reference: paper PMC4336329 (PLoS ONE, 2015)
The whole screen tested about 310,000 compounds, of which about 2,200 (0.71%) showed an effect of 50% or more. Effects have a minus sign here. This is one part of the list.

Target: human ether-à-go-go-related gene (hERG) potassium channel (human, UniProt Q12809)
Test: primary screen, population patch clamp on CHO cells stably expressing hERG

human ether-à-go-go-related gene (hERG) potassium channel, sequence (Q12809 whole entry, looked up): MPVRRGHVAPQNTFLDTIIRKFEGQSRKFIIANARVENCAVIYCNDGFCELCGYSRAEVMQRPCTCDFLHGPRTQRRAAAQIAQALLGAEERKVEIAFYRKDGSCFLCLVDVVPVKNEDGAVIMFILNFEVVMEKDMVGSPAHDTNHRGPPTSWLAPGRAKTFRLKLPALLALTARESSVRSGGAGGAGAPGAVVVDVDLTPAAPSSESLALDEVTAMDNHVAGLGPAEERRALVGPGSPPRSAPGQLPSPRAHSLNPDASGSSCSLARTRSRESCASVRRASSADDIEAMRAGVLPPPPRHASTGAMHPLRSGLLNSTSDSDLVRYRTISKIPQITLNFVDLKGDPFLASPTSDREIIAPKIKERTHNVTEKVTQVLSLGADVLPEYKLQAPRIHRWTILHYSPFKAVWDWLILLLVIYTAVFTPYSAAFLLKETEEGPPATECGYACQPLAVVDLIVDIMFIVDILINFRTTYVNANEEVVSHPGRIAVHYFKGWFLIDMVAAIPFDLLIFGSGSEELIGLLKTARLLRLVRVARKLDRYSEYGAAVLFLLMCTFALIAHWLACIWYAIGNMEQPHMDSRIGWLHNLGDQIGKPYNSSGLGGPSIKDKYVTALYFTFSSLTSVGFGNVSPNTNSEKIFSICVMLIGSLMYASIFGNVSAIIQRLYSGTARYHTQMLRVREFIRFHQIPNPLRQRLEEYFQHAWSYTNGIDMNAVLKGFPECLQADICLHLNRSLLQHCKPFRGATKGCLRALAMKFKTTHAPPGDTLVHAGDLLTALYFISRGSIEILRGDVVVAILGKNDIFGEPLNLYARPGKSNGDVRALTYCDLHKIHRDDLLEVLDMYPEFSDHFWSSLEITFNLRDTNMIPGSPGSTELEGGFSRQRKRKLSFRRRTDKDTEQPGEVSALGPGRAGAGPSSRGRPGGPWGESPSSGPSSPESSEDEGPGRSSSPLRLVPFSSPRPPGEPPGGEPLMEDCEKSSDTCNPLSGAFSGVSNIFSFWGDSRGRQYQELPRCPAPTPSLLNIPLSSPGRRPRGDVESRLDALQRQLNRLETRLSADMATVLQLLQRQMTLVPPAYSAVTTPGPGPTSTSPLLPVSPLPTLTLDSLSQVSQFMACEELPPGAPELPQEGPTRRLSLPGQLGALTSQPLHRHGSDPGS

**Q.** For `Cc1c(C(=O)Nc2ccc(F)cc2)nnn1-c1cccc(C(F)(F)F)c1`, which “hERG current change (%, negative = inhibition) at 1uM” value is on record?
**A.** 8.01%

**Q.** For `CC(=O)Nc1cccc(/C(C)=N/NC(=O)c2c(-c3ccccc3Cl)noc2C)c1`, which “hERG current change (%, negative = inhibition) at 1uM” value is on record?
**A.** -2.52%

**Q.** Which “hERG current change (%, negative = inhibition) at 1uM” value does the source give for `Cn1cccc1/C=C1\SC(=O)N(CC(=O)Nc2ccc(Cl)cc2)C1=O` here?
**A.** 23.3%

**Q.** Which “hERG current change (%, negative = inhibition) at 1uM” value does the source give for `N#Cc1cc2nc([O-])c([O-])nc2cc1[N+](=O)[O-].[Na+]` here?
**A.** 12.4%

**Q.** For `CC1CCN(S(=O)(=O)c2ccc(S(=O)(=O)N3CCC4(CC3)OCCO4)cc2)CC1`, which “hERG current change (%, negative = inhibition) at 1uM” value is on record?
**A.** 7.01%

**Q.** Which “hERG current change (%, negative = inhibition) at 1uM” value does the source give for `CC(=O)N1N=C(c2cccs2)CC1c1ccco1` (stereo not shown) here?
**A.** 8.93%

**Q.** With `CC(C)CCNC(=O)[C@H](CSCc1ccccc1)N1Cc2ccccc2C1=O` as the compound, how does the “hERG current change (%, negative = inhibition) at 1uM” value read?
**A.** -8.45%

**Q.** For `COc1ccc(C)cc1C(=O)CCC(=O)Nc1ccccc1N1CCOCC1`, which “hERG current change (%, negative = inhibition) at 1uM” value is on record?
**A.** 11.1%

**Q.** How did the “hERG current change (%, negative = inhibition) at 1uM” value turn out when `CC1(C)Cc2ccccc2C(=C(C#N)C#N)N1` was run?
**A.** 1.8%

**Q.** With `CSc1c(CC(=O)Nc2ccc(F)cc2)n(Cc2ccccc2)c2ccccc12` as the compound, how does the “hERG current change (%, negative = inhibition) at 1uM” value read?
**A.** 4.61%

**Q.** Which “hERG current change (%, negative = inhibition) at 1uM” value does the source give for `COc1ccc(CNC(=O)C2Cc3ccccc3CN2C(=O)c2ccco2)cc1` (stereo not shown) here?
**A.** -9.69%

**Q.** `COc1ccc(Cl)cc1S(=O)(=O)N1CCN(c2ccc(F)cc2)CC1` was tested. Which “hERG current change (%, negative = inhibition) at 1uM” value did it give?
**A.** 5.81%

**Q.** `CCc1nnc(NC(=O)c2ccc(-c3ccccc3Cl)o2)s1` was tested. Which “hERG current change (%, negative = inhibition) at 1uM” value did it give?
**A.** 5.17%

**Q.** For `Cc1ccc(OCC(=O)Nc2ccc3c(c2)OCO3)c(C)c1`, which “hERG current change (%, negative = inhibition) at 1uM” value is on record?
**A.** 8.38%

**Q.** Which “hERG current change (%, negative = inhibition) at 1uM” value does the source give for `CCCNc1nc(C)cc(-c2cc(-c3ccc(Cl)cc3)on2)n1` here?
**A.** 15.2%

**Q.** With `CNCCCOc1cc(C)cc(C)c1C.O=C(O)C(=O)O` as the compound, how does the “hERG current change (%, negative = inhibition) at 1uM” value read?
**A.** 11.8%

**Q.** Which “hERG current change (%, negative = inhibition) at 1uM” value does the source give for `CC1CCN(CC(=O)Nc2ccccc2C(=O)c2ccccc2)CC1` here?
**A.** 4.66%

**Q.** For `Nc1nnc(SCn2nnc3ccccc3c2=O)s1`, which “hERG current change (%, negative = inhibition) at 1uM” value is on record?
**A.** 8.05%

**Q.** For `C=CCn1cccc(/C=C/C(=O)c2ccc(C(C)(C)C)cc2)c1=S`, which “hERG current change (%, negative = inhibition) at 1uM” value is on record?
**A.** 6.52%

**Q.** Which “hERG current change (%, negative = inhibition) at 1uM” value does the source give for `COc1ccc(-c2cc(C(=O)Nc3ccc(C(N)=O)cc3)c3ccccc3n2)cc1OC` here?
**A.** 3.06%

**Q.** For `CCOP(=O)(OCC)C(O)c1cccnc1` (stereo not shown), which “hERG current change (%, negative = inhibition) at 1uM” value is on record?
**A.** -4.2%

**Q.** `CC(C)c1nc(SCC(=O)Nc2nc3c(s2)CCCC3)c2ccccc2n1` was tested. Which “hERG current change (%, negative = inhibition) at 1uM” value did it give?
**A.** -2.91%

**Q.** `COc1ccc(OC)c(/C=N/N=C2\SCC(=O)N2Cc2ccco2)c1` was tested. Which “hERG current change (%, negative = inhibition) at 1uM” value did it give?
**A.** 9.96%

**Q.** For `CCCCN(C)CCn1c(=S)[nH]c2ncccc2c1=O`, which “hERG current change (%, negative = inhibition) at 1uM” value is on record?
**A.** -15.8%

**Q.** `Cc1ccc(OCc2nc(-c3ccccn3)no2)cc1` was tested. Which “hERG current change (%, negative = inhibition) at 1uM” value did it give?
**A.** 12.5%
